PubChem BioAssay AID1347417 (National Center for Advancing Translational Sciences (NCATS), 2020)
In all, about 120,000 compounds went through this assay and about 5,300 (4.4%) were called active. This list was built around the results that the source calls inconclusive (neither active nor inactive); the mix of calls is not that of the screen. The call rests on the fitted dose curve; in most records, active means well fitted inhibition curve with a large enough effect; inconclusive means small, poorly fitted or top-dose-only effect; inactive means no such curve, though single readings can be large or run the other way. Where the call is inconclusive, the potency comes from a doubtful curve fit.

experiment: qHTS Primary assay for Inhibitors of Plasmodium falciparum Dd2 growth in vitro; further: nearly all actives have a fitted effect of over 65% in size; details: P. falciparum Dd2 growth, SYBR Green, 72 h; series mostly up to 28.9 µM
Method in brief: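 Infected erythrocytes (Dd2, 0.3% parasitemia, 2.5% hematocrit final) are added to compound in RPMI-1640/Albumax II medium, grown 72 h at 37C in low oxygen, then lysed with saponin/Triton-X containing SYBR Green and read by fluorescence.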
Potency means the concentration at half of the fitted maximal effect; tags describe the fitted curve by direction and shape.

SMILES	Potency
CC1(C)CN(C(=O)c2csc(Cc3ccccc3)n2)CC1(C)O (configuration not stated)	inactive
COc1ccccc1N1CCN(C2CCCN(C(=O)c3ccc4nc(C)[nH]c4c3)C2)CC1 (configuration not stated)	inconclusive: 14.1 µM [inhibitor, single point]
COc1ccc(NC(=O)c2c(C)oc3ccc(O)c(CN4CCCCCC4)c23)cc1	active: 2.82 µM
COc1cccc(-n2cc(CN(C)c3nccc(-c4cccnc4)n3)cn2)c1	inconclusive: 10 µM [inhibitor, single point]
COc1cc(CNC(=O)CN2CCCc3nc(C4CC4)ncc3C2=O)cc(OC)c1	inactive
CC1=C[C@@H](CNC(=O)COCC(=O)O)[C@H](C(C)C)C[C@H]1CC(=O)N1CCCC1	inactive
Cc1ccc(C2(C(=O)NC(C)c3cnc(-c4ccncc4)nc3C)CC2)cc1 (configuration not stated)	inactive
Cc1noc(C)c1[S+](=O)([O-])N1CCC(N2CCC[S+]2(=O)[O-])CC1	inactive
O=C(Nc1cc(Cl)cc(Cl)c1)c1cc(S(=O)(=O)N2CCC3(CC2)OCCO3)ccc1F	inconclusive: 17.8 µM [inhibitor, single point]
Fc1ccc(Nc2c(-c3ccccn3)nc3ccc(Cl)cn23)cc1	active: 8.91 µM
COCC1CN(C)CC12CCN(C(=O)Cc1cccc(Cl)c1)CC2 (configuration not stated)	inactive
O=C(c1ccc2cccnc2c1O)N1CCCC(CCc2ccccc2F)C1 (configuration not stated)	inconclusive: 17.8 µM [inhibitor, single point]
CNC(=O)CCn1ncc2cc(OC3CCc4cccc(-c5cccnc5OC)c43)ccc21 (configuration not stated)	inconclusive: 10 µM [inhibitor, single point]
CN(C)c1cccc(Oc2nnnn2[C@H]2CO[C@H]3[C@@H]2OC[C@@H]3NC(=O)Nc2ccc(Oc3ccccc3)cc2)c1	inconclusive: 5.01 µM [inhibitor, partial curve]
O=S(=O)(N[C@H]1CO[C@H]2[C@@H]1OC[C@@H]2n1nnnc1-c1ccc2c(c1)OCO2)c1ccc2ccccc2c1	inconclusive: 7.08 µM [inhibitor, partial curve]
CCc1cc(N2CCC(Oc3ccccc3OC)(C(=O)O)CC2)nc(C)n1	inactive
Cc1noc(Cn2c(=O)c3ccccc3n(CC(=O)Nc3ccc(F)cc3F)c2=O)n1	inconclusive: 7.94 µM [inhibitor, partial curve, poor fit]
Cc1nc2cc(S(=O)(=O)N3CCOCC3)ccc2n1CCNC(=O)C1(C)CC1	inactive
Cc1cc(C)c(Cn2c3ccccc3c3cnn(CC(=O)NCc4ccc(Cl)cc4)c(=O)c32)c(C)c1	active: 7.94 µM
COc1ccccc1Cc1nccc(C2(c3ccccc3Cl)CCNCC2)n1	active: 8.91 µM
O=C(Cc1cccc(F)c1)N1CCC(Oc2ccccc2-c2nc(C3CC3)no2)C1 (configuration not stated)	inconclusive: 0.251 µM [inhibitor, full curve, poor fit]
Cc1ccsc1CN(C)C(=O)C1CCCN(C2CCN(C(=O)C3CC3)CC2)C1 (configuration not stated)	inconclusive: 17.8 µM [inhibitor, single point]
Cn1cc(CN2C[C@@H](CO)[C@H](C(=O)NC3CC3)C2)cn1	inconclusive: 3.98 µM [inhibitor, single point]

SMILES	Potency
CNC(=O)N1CCC(C2CCN(C(=O)CCc3ccc(OC)cc3)C2)CC1 (configuration not stated)	inactive
CC1=C(C(=O)N2CCCCC2)C(c2cccc(Cl)c2)n2c(nc3ccccc32)N1 (configuration not stated)	inconclusive: 1.12 µM [inhibitor, single point]
COc1ccc(-c2noc(CC3CCN(C(=O)c4ccc(OC)nc4)CC3)n2)cc1	inconclusive: 5.01 µM [inhibitor, partial curve, poor fit]
Cn1cccc1CN1CCC2(CC1)CC(=O)c1ccc(Cl)cc1O2	inconclusive: 2.82 µM [inhibitor, partial curve, poor fit]
CCc1cccc2c(C(CC(=O)NCCc3ccc(OC)c(OC)c3)c3cccc(F)c3)c[nH]c12 (configuration not stated)	inconclusive: 1.78 µM [inhibitor, partial curve]
CCOc1ccc2c(n1)CCN(C(=O)Nc1ccc(CC)cc1)C2	inconclusive: 7.94 µM [inhibitor, partial curve, poor fit]
O=C(CN(c1cc(C(F)(F)F)ccc1Cl)S(=O)(=O)c1ccccc1)NCCc1ccccc1	inconclusive: 11.2 µM [inhibitor, partial curve]
COc1ccc(-c2c(C#N)c(SCC(=O)Nc3ccc(Br)cc3)nc(C)c2C(=O)Nc2ccccc2)cc1	inconclusive: 17.8 µM [inhibitor, single point]
O=C(Cc1ccc(F)cc1)N1CCOCC2(CN(Cc3ccccc3)C2)C1	inconclusive: 5.62 µM [inhibitor, single point]
CCOc1ccc(CCNC(=O)c2ccc3c(c2)N(Cc2ccccc2)C(=O)c2ccccc2S3=O)cc1OCC (configuration not stated)	inactive
COC(=O)c1ccccc1NC(=O)c1cc2c(s1)-c1ccccc1OC2	inactive
CCC(C)NC(=O)C1(c2ccc(NC(C)=O)cc2)CCCCC1 (configuration not stated)	inactive
O=C1OCC2(CCN(Cc3cccc(OC(F)(F)F)c3)C2)N1c1ccncc1 (configuration not stated)	inconclusive: 31.6 µM [inhibitor, single point]
COc1ccccc1-c1cc(-c2c(C)noc2C)cc2c1C(=O)N(C)C2	inconclusive: 31.6 µM [inhibitor, single point]
O=C(NC1CC1)[C@@H]1C[C@H](Oc2ccccc2)CN1C(=O)C1(c2ccccc2)CC1	inconclusive: 7.94 µM [inhibitor, single point]
Cc1nn(C)c(C)c1S(=O)(=O)N1CCCC1c1noc(COc2ccc(F)cc2)n1 (configuration not stated)	inactive
COc1c[nH]c(CN2CCCC(CCc3ccccc3C)C2)cc1=O (configuration not stated)	inconclusive: 10 µM [inhibitor, partial curve]
CCC(CC)c1cc([C@H]2CN3CC[C@H]2C[C@@H]3CNS(=O)(=O)c2ccccc2C#N)nc(-c2ccncc2)n1	inconclusive: 0.447 µM [inhibitor, full curve, poor fit]
CCn1cnnc1-c1nn(C)c2c1CN(C(=O)CC(C)C)CC2	inconclusive: 0.355 µM [inhibitor, full curve]
CCOC(=O)c1sc(NC(=O)C(C)Sc2nc(-c3ccccc3)cc(C(F)(F)F)n2)c(C(=O)OC)c1C (configuration not stated)	active: 0.708 µM
CC(C)CN1C(=O)c2cccn2CC1C(=O)NCCCN1CCc2ccccc2C1 (configuration not stated)	inconclusive: 3.98 µM [inhibitor, partial curve, poor fit]
O=C(CCCCn1c(=O)c2ccccc2n(CC(=O)Nc2ccccc2)c1=O)NCc1ccccc1Cl	inconclusive: 0.891 µM [inhibitor, partial curve]
Cc1n[nH]c(C)c1CCc1nc2c3ccccc3nc(SCC(=O)Nc3ccc(F)cc3)n2n1	active: 8.91 µM

SMILES	Potency
Cc1cc(C(=O)N2CCCN(S(C)(=O)=O)C(c3ccccc3)CC(=O)NCC2)nn1C (configuration not stated)	inactive
Cc1ccc(OCCn2cc(C(=O)c3ccco3)c3ccccc32)cc1C	inconclusive: 17.8 µM [inhibitor, single point]
Cc1cnn(CC(=O)N2C[C@@H](CO)[C@H](c3ccccn3)C2)c1	inactive
COc1ccc(CN2CC(C(=O)NCc3ccncc3)C3(CCOCC3)C2)cc1 (configuration not stated)	inactive
Cc1ccc(NC(=O)c2cnc(N3CCCCC3)c3ccccc23)cc1Cl	inactive
Cc1ccc(S(=O)(=O)N2CCC(n3cnnc3-c3ccccc3)CC2)c(C)c1	inconclusive: 17.8 µM [inhibitor, single point]
CCc1nc2c(c(-c3ccc(Cl)cc3)n1)CCN(CC1CC1)CC2	inconclusive: 6.31 µM [inhibitor, partial curve, poor fit]
CCN1CCN(c2cc(C)c3cc(NC(=O)c4cccc(Cl)c4)ccc3n2)CC1	active: 1.58 µM
CCCC(=O)C1=C(c2ccc(C)cc2)N(C(=O)CCC)n2cnnc2S1	inconclusive: 17.8 µM [inhibitor, single point]
COCCN1CC(CO)C2(CCN(C(=O)c3cc(Cl)ccc3OC)CC2)C1 (configuration not stated)	inconclusive: 10 µM [inhibitor, single point]
Cc1cc2ncc(C(=O)NCCc3ccccn3)cn2n1	inactive
CN1c2cccnc2CN(Cc2ccc(C(F)(F)F)cc2)CC[C@H]1CO	inconclusive: 31.6 µM [inhibitor, single point]
COc1ccc(-c2nc3c(c(-c4ccccc4)n2)CN(C(=O)C(C)(C)C)CC3)cc1	inconclusive: 2.51 µM [inhibitor, full curve]
CCOc1ccccc1CNC(=O)c1ccc2c(c1)sc1nc(-c3ccccc3)cn12	inconclusive: 10 µM [inhibitor, single point]
COc1ccc(CCNC(=O)CSC2=Nc3ccccc3C3=NC(CCC(=O)NCc4ccccc4)C(=O)N23)cc1OC (configuration not stated)	inactive
Cc1ccc(Cl)cc1N1CCN(CCCNc2ncnc3onc(-c4ccc(Cl)cc4)c23)CC1	inconclusive: 1.12 µM [inhibitor, single point]
O=C(c1cc2c(s1)CN(C1CCCC1)C2)N1CCCCCC1	inconclusive: 10 µM [inhibitor, single point]
COCCc1noc(-c2ccccc2OC2CN(C(=O)Cc3cccc(C)c3)C2)n1	inconclusive: 3.98 µM [inhibitor, full curve, poor fit]
COc1cccc(-c2cc3c(=O)n(CCNC(=O)c4cc5ccccc5[nH]4)ccn3n2)c1	inactive
CC(C)c1nc2c(c(-c3ccc(O)cc3)n1)CN(Cc1ccccn1)CC2	inactive
CCOc1cc(=O)n2c(c1C(=O)Nc1cc(OC)c(OC)c(OC)c1)CCCC2	inconclusive: 3.98 µM [inhibitor, single point]
